Test results reported in PMC4336329 (PLoS ONE, 2015).
Screen size: about 310,000 compounds; about 2,200 (0.71%) showed an effect of 50% or more. The effect is printed as a negative number. The list shows a part of the results.

biological target: human ether-à-go-go-related gene (hERG) potassium channel (human, UniProt Q12809); test: primary screen, population patch clamp on CHO cells stably expressing hERG
Sequence (Q12809 whole entry, looked up): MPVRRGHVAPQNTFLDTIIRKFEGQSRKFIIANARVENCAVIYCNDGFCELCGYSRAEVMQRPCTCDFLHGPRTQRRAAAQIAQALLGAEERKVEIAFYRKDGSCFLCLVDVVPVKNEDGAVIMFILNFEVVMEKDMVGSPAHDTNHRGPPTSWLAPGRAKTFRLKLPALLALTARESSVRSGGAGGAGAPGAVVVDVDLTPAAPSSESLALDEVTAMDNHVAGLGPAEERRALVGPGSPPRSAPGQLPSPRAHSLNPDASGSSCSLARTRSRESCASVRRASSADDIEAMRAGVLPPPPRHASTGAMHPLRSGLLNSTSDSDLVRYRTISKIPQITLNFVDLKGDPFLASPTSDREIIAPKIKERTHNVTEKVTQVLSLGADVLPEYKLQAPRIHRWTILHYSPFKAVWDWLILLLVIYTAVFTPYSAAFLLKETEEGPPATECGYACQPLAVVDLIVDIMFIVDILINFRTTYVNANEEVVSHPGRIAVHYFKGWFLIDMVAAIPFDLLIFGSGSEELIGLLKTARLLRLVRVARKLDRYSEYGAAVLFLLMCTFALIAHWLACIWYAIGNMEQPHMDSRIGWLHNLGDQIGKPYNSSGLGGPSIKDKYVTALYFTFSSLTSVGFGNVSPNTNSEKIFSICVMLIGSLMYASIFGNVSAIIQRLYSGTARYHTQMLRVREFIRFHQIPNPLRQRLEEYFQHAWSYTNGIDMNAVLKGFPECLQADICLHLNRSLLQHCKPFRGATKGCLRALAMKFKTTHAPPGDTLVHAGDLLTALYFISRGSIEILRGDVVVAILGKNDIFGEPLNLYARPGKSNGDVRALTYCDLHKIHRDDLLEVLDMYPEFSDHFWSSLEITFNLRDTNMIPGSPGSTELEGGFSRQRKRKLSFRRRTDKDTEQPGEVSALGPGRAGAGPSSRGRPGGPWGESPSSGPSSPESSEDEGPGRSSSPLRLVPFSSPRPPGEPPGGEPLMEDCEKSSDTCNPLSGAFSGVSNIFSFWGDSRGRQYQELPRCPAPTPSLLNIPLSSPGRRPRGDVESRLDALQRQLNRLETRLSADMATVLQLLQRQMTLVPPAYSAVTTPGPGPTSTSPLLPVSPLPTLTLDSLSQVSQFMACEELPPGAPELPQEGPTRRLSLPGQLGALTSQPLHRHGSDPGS

Compound | hERG current change (%, negative = inhibition) at 1uM [%]
COC(=O)c1ccc(CN2CCN(C3CCCC3)C(CCO)C2)cc1 (centres unmarked) | -12.9
CC1(C)CC(=NOC(=O)c2ccccc2)CC(C)(C)N1O | 14.1
CCOC(=O)c1ccc(NC(=O)COc2ccc(S(=O)(=O)NC(C)CC)cc2)cc1 (centres unmarked) | -6.09
O=S(=O)(c1ccc(N2CCN(Cc3ccc4c(c3)OCO4)CC2)nc1)N1CCOCC1 | 3.35
Cc1cnc(C(=O)OCC(=O)NC2CCCC(C)C2C)cn1 (centres unmarked) | 8.03
CCOc1ccc(C2/C(=C(\O)c3ccc4c(c3)OCCO4)C(=O)C(=O)N2CCCN2CCOCC2)cc1OC (centres unmarked) | 2.75
CCCn1c(=O)[nH]c(=O)c2c(C(=O)OCC)cc(-c3cccs3)nc21 | 9.08
Cn1c(=O)c2c(ncn2CC(=O)Nc2ccc(N3CCOCC3)cc2)n(C)c1=O | 11.9
Cc1ccc(N/C=C2\CCCCC2=O)c(C)c1 | 8.3
CC(=O)Nc1cccc(NC(=O)c2ccc(Br)cc2)c1 | 20.4
CN1C2=CC=CC=CC2=[N+](C)C12C=CC(=[N+]([O-])[O-])C=C2[N+](=O)[O-] (centres unmarked) | 11.6
Cc1nc(N/N=C/c2ccc(O)cc2O)cc(N2CCOCC2)n1 | 10.9
CCn1c(CCc2ccccc2)nc2ccccc21.Cl | 10.9
Cc1cccc(NC(=O)C2CCN(S(=O)(=O)c3c(C)[nH]c(=O)[nH]c3=O)CC2)c1 | 3.29
CCCNC(=S)N1CCC(NC(=O)Nc2ccc(C)cc2)CC1 | 13.4
CC(C)CC(OC(=O)c1ccc(Cl)nc1)C(=O)NC1CCCC1 (centres unmarked) | 13.8
CN(C(=O)c1ccc2c(c1)OCO2)C1CCCCC1 | 6.85
CCN(CC(=O)Nc1ccc(NC(C)=O)cc1)C(=O)c1cccc(-n2cccc2)c1 | 19.5
CCOC(=O)c1c(-c2ccc(F)cc2)csc1NC(=O)CN1C(=O)NC2(CCCCC2C)C1=O (centres unmarked) | 4.89
CSCCC(NC(=O)COc1ccccc1)C(=O)N1CCCC(C)C1 (centres unmarked) | 4.93
CCOc1ccc(CNC(=O)CCC(=O)N2Cc3ccccc3Oc3ncccc32)cc1 | -6.15
O=c1cc(O)c2ccccc2n1Cc1ccccc1F | 8.51
O=c1nccc(N/N=C/c2ccccc2O)[nH]1 | 12.2

Compound | hERG current change (%, negative = inhibition) at 1uM [%]
O=C(C[n+]1cccc2ccccc21)c1ccc(Br)cc1.[Br-] | -5.64
COc1ccc2oc(=O)c(C(=O)Nc3cccc(C(C)=O)c3)cc2c1 | 16.8
COC(=O)c1ccc(NC(=O)CS(=O)(=O)c2ccccc2)cc1 | 11
Cc1c(Cl)cccc1N1C(=O)CC(NNC(=O)c2cccs2)C1=O (centres unmarked) | 12.1
Cc1c(Cl)cccc1NC(=O)COC(=O)Cn1cnc2c1c(=O)n(C)c(=O)n2C | 12.6
CCCc1nc2cc3c(cc2[nH]1)n(C)c(=O)n3C.Cl | 6.45
Cc1nnc(SCC(=O)NCc2ccccc2)s1 | 9.69
CN(CC(=O)O/N=C(\N)c1ccc([N+](=O)[O-])cc1)S(=O)(=O)c1ccccc1 | 1.05
O=c1[nH]c(C2CCCN(S(=O)(=O)c3ccc(F)cc3)C2)nc2c1nnn2Cc1ccc(F)cc1 (centres unmarked) | 6.87
OCCC1CN(CCCc2ccccc2)CCN1Cc1ccccc1 (centres unmarked) | -35.6
CC(=O)N1CCc2c(sc(NC(=O)Cc3ccc(C)cc3C)c2C#N)C1 | 3.21
O=C(COc1ccc2ccc(=O)oc2c1)NCC(O)c1ccccc1 (centres unmarked) | 12.9
CCOC(=O)c1sc2nc(C)nc(NCc3cccnc3)c2c1C | 10.8
O=C1CC(NCc2ccc3c(c2)OCO3)C(=O)N1Cc1ccc2c(c1)OCO2 (centres unmarked) | 5.43
O=P(OCC(F)(F)C(F)F)(N1CCCCC1)N1CCCCC1 | 7.71
COc1ccc(/C=C(\NC(=O)c2ccc(C)cc2)C(=O)NCCCN2CCOCC2)cc1OC | 14.1
COCCN(Cc1ccccc1)C(=O)Cc1ccc(S(=O)(=O)N2CCOCC2)s1 | -2.95
CCOc1ccc(NC(=O)CSC2=C(C#N)C(c3ccc4c(c3)OCO4)CC(=O)N2)cc1 (centres unmarked) | -0.396
COc1ccccc1CNc1cc(C)ccn1 | 13.5
c1ccc(-n2nc3ccccc3n2)cc1 | 10.8
C/C(=N\N1CCN(C)CC1)c1c(O)[nH]c(=O)[nH]c1=O | 8.28
CCOC(=O)COc1ccc(/C=C/[N+](=O)[O-])c(OCC(=O)OCC)c1 | 12.7
COc1cccc(CNc2ccc(S(=O)(=O)Nc3nccs3)cc2)c1O | 5.41

Compound | hERG current change (%, negative = inhibition) at 1uM [%]
NC(N)=NS(=O)(=O)c1ccc(NC(=S)NC(=O)c2sc3ccccc3c2Cl)cc1 | 16.6
O=C1C2CCCN2C(c2cccc(Cl)c2)N1c1ccccn1 (centres unmarked) | 8.58
Cc1sc2nc(C3CC3)nc(SCC(=O)NCc3ccco3)c2c1C | 8.91
CO[C@@H]1[C@@H](OC(N)=O)[C@@H](O)C(Oc2ccc3c(O)c(NC(=O)c4ccc([O-])c(CC=C(C)C)c4)c(=O)oc3c2C)OC1(C)C.[Na+] (some centres unmarked) | 10.2
CCOc1ccc2nc(N3CCC(C(=O)NC4CCCCC4)CC3)sc2c1 | 17.7
O=C(Nc1cccc(S(=O)(=O)N2CCOCC2)c1)c1c2c(nc3ccccc13)CCC2 | 8.49
CN(C(=O)COC(=O)CCc1nc2ccccc2c(=O)[nH]1)C1CCS(=O)(=O)C1 (centres unmarked) | 9.85
C/C(=N\O)c1ncc(C(F)(F)F)cc1Cl | 10.8
COc1cc(NC(=O)c2sc3nc(C)nc(N4CCOCC4)c3c2C)cc(OC)c1OC | 30.1
CCCOC(=O)c1ccc(NC(=O)CN(C)Cc2cccs2)cc1 | 11.8
CS(=O)(=O)N1CCc2cc(C(=O)OCC(=O)c3ccccc3)ccc21 | 15.3
CS(=O)(=O)c1cccc(-c2nnc(NC(=O)CCS(=O)(=O)c3ccccc3)o2)c1 | 3.6
Clc1cccc(Cl)c1Cn1ccc(C2CC2)n1 | 5.67
COc1cccc(NC(=O)CSc2nc3ccccc3c(=O)n2CCCC(=O)NCCCN2CCOCC2)c1 | 2.09
COc1ccc(-c2nc3ccccc3n2CCC(C)C)cc1OC | -6.45
O=C(CSc1nc2[nH]c(=O)cc(O)c2s1)Nc1ccc(Br)cc1 | 12.8
CCOc1cc(C2Nc3ccccc3C(=O)N2c2ccccc2OC)ccc1O (centres unmarked) | 8.21
CC1(C)CC(=O)C2=C(C1)Nc1ccccc1N1C(=O)c3ccccc3C21 (centres unmarked) | 3.6
Cc1cc(C)cc(NS(=O)(=O)c2cc(C(=O)NCc3ccccn3)ccc2Cl)c1 | 0.728
O=C(CCS(=O)(=O)c1ccc(Br)cc1)N1CCCCCC1 | 7.78
COc1ccccc1C(=O)NCCC(=O)Nc1cccc(S(=O)(=O)N2CCCC2)c1 | 7.14
CCN(CC)CC(=O)Nc1sc2c(c1C(=O)c1ccccc1OC)CCC2 | 11.8
CCOC(=O)N1CCN(C(=O)c2ccc(N3CCCC3=O)cc2)CC1 | 10.1

Compound | hERG current change (%, negative = inhibition) at 1uM [%]
COC(=O)c1ccc(N(CC(=O)NCC2CCCO2)C(=O)CCC(=O)Nc2cc(C)on2)cc1 (centres unmarked) | 6.34
S=C(NCCC1=CCCCC1)NCc1ccco1 | 15.3
CCCC/C(=N\O)c1c[nH]c2ccccc12 | 7.38
CSc1ccc(Cl)c(C(=O)Nc2ccc(C)cn2)c1 | 7.68
COc1ccc(-c2ccnc3c(C#N)cnn23)cc1 | 13.5
O=C(CSc1nnc(COc2ccccc2)n1-c1ccccc1)c1ccccc1 | 15.4
CCC(=O)Nc1ccc(-c2csc(C)n2)cc1 | -0.151
Cc1cccc(-n2c(O)c(C=Nc3ccccc3O)c3ccccc3c2=O)n1 | 8.38
CC(=O)c1nnn(-c2ccc(F)cc2F)c1C | 5.44
Cc1nn(CCOc2ccccc2)c(=O)n1-c1ccc(F)cc1 | 12
Cc1oc(-c2ccccc2)nc1CS(=O)CC(=O)NC1CCCCCC1 (centres unmarked) | 2.05
CCN(CC)CCN(C(=O)c1ccc2c(c1)CCCC2)c1nc2ccc(C)cc2s1.Cl | 11.1
CN(C(=O)C1CCCO1)C1CCS(=O)(=O)C1 (centres unmarked) | 6.29
CCCCNCCCOc1cccc(Cl)c1Cl | 9.03
CCN(c1ccccc1)S(=O)(=O)c1ccc(Cl)c(NC(=O)CSc2n[nH]c(N)n2)c1 | 10.9
CC(C)(C)Oc1ccccc1Nc1nc(NCCO)nc(N2CCCC2)n1 | 11.9
Clc1ccc(SCc2cn3ccsc3n2)cc1 | 10.3
CCCCN(C)CCNC(=O)Cn1ncc2c(=O)oc3ccc(C)cc3c21 | -0.911
O=C(c1ccncc1)N1CCN(S(=O)(=O)c2ccccc2Br)CC1 | 6.13
CN(C)S(=O)(=O)c1ccc(S(=O)(=O)N2CCCC2)cc1 | 11.4
